The campaign covered roughly 220,000 compounds. About 16,000 (7.3%) were called active. The shares of active, inactive and inconclusive entries below differ from those in the screen. Calls follow the shape of the dose curve; as a rule, active = well fitted inhibition curve with a large enough effect (not every such curve was filed as active); inconclusive = small, poorly fitted or top-dose-only effect, or another doubt; inactive = no such curve, though single readings can be large or run the other way. Where the call is inconclusive, the potency comes from a doubtful curve fit.
Biological target: Aldehyde dehydrogenase 1A1 (Homo sapiens) (UniProt P00352)
UniProt P00352, sequence (P00352 whole entry, looked up): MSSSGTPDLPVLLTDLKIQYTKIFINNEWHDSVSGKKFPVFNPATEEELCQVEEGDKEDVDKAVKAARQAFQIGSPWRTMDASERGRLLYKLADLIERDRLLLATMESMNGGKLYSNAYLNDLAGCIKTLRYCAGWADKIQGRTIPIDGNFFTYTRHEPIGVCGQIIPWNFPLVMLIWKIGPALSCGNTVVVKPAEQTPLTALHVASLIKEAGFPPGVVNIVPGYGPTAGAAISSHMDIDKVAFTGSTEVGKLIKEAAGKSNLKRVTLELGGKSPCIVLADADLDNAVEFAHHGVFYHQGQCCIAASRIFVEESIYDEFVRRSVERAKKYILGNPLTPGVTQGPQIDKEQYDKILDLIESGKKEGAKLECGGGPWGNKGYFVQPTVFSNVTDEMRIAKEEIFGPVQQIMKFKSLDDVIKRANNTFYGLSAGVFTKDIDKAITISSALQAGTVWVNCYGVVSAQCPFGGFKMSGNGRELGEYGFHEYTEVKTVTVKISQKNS
Test: qHTS Assay for Inhibitors of Aldehyde Dehydrogenase 1 (ALDH1A1)
Details: Purified ALDH1A1, NADH fluorescence, propionaldehyde substrate; series mostly up to 75.3 µM
Potency is read from the fitted curve at half-maximal effect; tags tell the direction and shape of the fitted curve.

Potency, inconclusive:
COCC1C2CC[C@H]3C(OCc4ccc(OC)cc4)OC[C@]4(C)[C@H]3C2=C(CN4C(=O)OC(C)(C)C)[C@H](C)C1COC (some centres not stated) 14.1 µM [inhibitor, partial curve], CCCc1n[nH]c2c1C(=O)C(C(=O)OC)C(C)(C)C2 (configuration not stated) 25.1 µM [inhibitor, single point], C#CCSc1cc(C(F)(F)F)nc(-c2ccccn2)n1 25.1 µM [inhibitor, single point], O=C(NCCCN1CCCC1=O)c1cccnc1 39.8 µM [inhibitor, single point], CC1CCN(C(c2nnnn2CCc2ccccc2)C(C)C)CC1 (configuration not stated) 28.2 µM [inhibitor, single point], CC1CN(C(NC(=O)C(C)(C)C)C(Cl)(Cl)Cl)CC(C)O1 (configuration not stated) 17.8 µM [inhibitor, partial curve], CCOc1ccc(-c2nc(CSc3nnc(C)s3)cs2)cc1OC 28.2 µM [inhibitor, single point], CC(NC(=O)c1ccc(Cn2cc([N+](=O)[O-])cn2)cc1)c1ccccc1 (configuration not stated) 39.8 µM [inhibitor, single point], Brc1ccccc1-n1nnc(-c2ccnc3ccccc23)n1 8.91 µM [inhibitor, partial curve], COc1cccc(Oc2coc3c(CN4CCOCC4)c(O)ccc3c2=O)c1 28.2 µM [inhibitor, partial curve], O=C1c2ccccc2C(Nc2ccc(Cl)cc2)N1CCN1CCOCC1 (configuration not stated) 15.8 µM [inhibitor, partial curve, poor fit], CC(CCc1ccccc1)NC(=O)COC(=O)C1CCC(C(C)(C)C)CC1 (configuration not stated) 39.8 µM [inhibitor, single point], O=[N+]([O-])c1cc(-c2nnc(C34CC5CC(CC(C5)C3)C4)o2)cc([N+](=O)[O-])c1 1.41 µM [inhibitor, partial curve], O=C(N/N=C/c1cc(Br)c(Br)o1)c1ccc2c(c1)OCCO2 28.2 µM [inhibitor, single point], COc1ccc(-c2nc3cnc(N4CCOCC4)nc3n(CCc3ccccc3)c2=O)cc1 3.55 µM [inhibitor, partial curve], CCOC(=O)C1CCCN(C(=O)c2cc3ccccc3oc2=O)C1 (configuration not stated) 39.8 µM [inhibitor, single point], c1ccc(-n2cc(CNCCc3cscn3)c(-c3ccc4c(c3)OCO4)n2)cc1 39.8 µM [inhibitor, single point], COc1ccc(OCC(=O)NCCC2=CCCCC2)c([N+](=O)[O-])c1 14.1 µM [inhibitor, partial curve], Cn1c(NCc2ccccc2)nc2c1c(=O)n(Cc1ccccc1)c(=O)n2C 39.8 µM [inhibitor, single point], O=[N+]([O-])c1ccc(O)c(/C=N/n2cnc3ccccc32)c1 22.4 µM [inhibitor, partial curve, poor fit], O=C(CSc1c2c(nc3ccccc13)CCC2)N1CCCC1 44.7 µM [inhibitor, single point], O=C(CCS(=O)(=O)c1ccccc1)Nc1ccc2c(c1)OCO2 39.8 µM [inhibitor, single point], CSCc1nc2scc(-c3ccccc3)c2c(=O)[nH]1 17.8 µM [inhibitor, partial curve], COc1cnc(SCc2c(Cl)cccc2Cl)nc1Cl 31.6 µM [inhibitor, single point], CCOC(=O)C1(Cc2ccccc2)CCN(Cc2cn(CC(=O)OC)c3ccccc23)CC1 39.8 µM [inhibitor, single point], O=C(Cn1c2ccc(F)cc2c2nc3n(c(=O)c21)CCS3)Nc1ccc(Cl)cc1F 25.1 µM [inhibitor, partial curve], Cc1ccc(N=Nc2c(=O)[nH]n3c(=O)cc(C)[nH]c23)cc1 23.8 µM [inhibitor, single point], Cc1ccc2sc(NNC(=O)c3cc(-c4cccs4)nc4ccccc34)nc2c1C 39.8 µM [inhibitor, single point], CC(=O)Nc1ccc(S(=O)(=O)n2cnc3cc(C)c(C)cc32)cc1 2.51 µM [inhibitor, full curve], COc1ccc(N2CCN(C(=O)CSc3nnc(-c4ccc5[nH]c(C)c(C)c5c4)o3)CC2)cc1 28.2 µM [inhibitor, partial curve], CCOC(=O)N1CCC2(CC1)C(C#N)=C(N)Oc1n[nH]c(C)c12 22.4 µM [inhibitor, partial curve], Cc1nc(NC2CCCCC2)c2nc(-c3ccccc3)n(CCN3CCCC3)c2n1 35.5 µM [inhibitor, partial curve], COCCn1c(=O)c(-c2ccccc2)nc2cnc(Oc3cccc(Cl)c3)nc21 25.1 µM [inhibitor, single point], O=C(CN1C(=O)C2CC=CCC2C1=O)Nc1nnc(SCc2ccc(Cl)cc2)s1 (configuration not stated) 44.7 µM [inhibitor, single point], C/C(N)=C(/C#N)C(=O)CSc1nnc(Nc2cccc(C)c2C)s1 11.2 µM [inhibitor, partial curve], O=C(NC(=S)NCC1CCCO1)c1cccc([N+](=O)[O-])c1 (configuration not stated) 12.6 µM [inhibitor, partial curve], COc1ccc(N=c2scc(-c3ccc(S(=O)(=O)N4CCOCC4)cc3)n2CCCO)cc1 25.1 µM [inhibitor, partial curve], O=C(Nc1ccccc1Cl)C1CC(=O)N(c2ccccc2)C1 (configuration not stated) 28.2 µM [inhibitor, single point], CN(C)CCNC(=O)/C=C/c1cn(-c2ccccc2)nc1-c1cc2ccccc2oc1=O 39.8 µM [inhibitor, single point], Cc1ccc(OCc2nc3c4c(ncn3n2)-c2ccccc2CC42CCCC2)cc1 39.8 µM [inhibitor, single point], Cc1nn(CCC(=O)NNC(=S)Nc2ccc(F)cc2)c(C)c1Br 37.7 µM [inhibitor, single point], COc1ccccc1NC(=O)CNS(=O)(=O)c1ccccc1 31.6 µM [inhibitor, single point], CCc1nnc(NS(=O)(=O)c2ccc(N=Cc3c(C)[nH]n(-c4ccc(Cl)cc4)c3=O)cc2)s1 39.8 µM [inhibitor, single point], CCCC(C(=O)NC1CCCC1)N(CC1CCCO1)C(=O)c1snc(C(N)=O)c1N (configuration not stated) 25.1 µM [inhibitor, single point], CCOc1c(Cl)cc(CNc2ccc(N3CCCC3)cc2)cc1OC 39.8 µM [inhibitor, single point]

Potency, inactive:
COc1ccc(C(=O)Nc2ccc(S(=O)(=O)Nc3onc(C)c3C)cc2)cc1, O=C(Nc1ccc(Cl)cc1)N1CCCN(Cc2ccccc2F)C1, C/C(=N\Nc1cccc(C(=O)O)c1)c1ccc(Cl)s1, COc1ccccc1CN1CCCC2(CCN(C(=O)c3cccn3C)CC2)C1, CSc1ccccc1NC(=O)Cc1ccc(Br)cc1, Nc1nnc(COc2ccccc2)s1, CCSc1nc(-c2cccs2)nc2ccccc12, COc1ccccc1NC1=CC(=O)CC(c2ccccc2)C1 (configuration not stated), O=S(=O)(NC1CC1)c1ccc(S(=O)(=O)N2CCCC3(CCCCC3)C2)cc1, CCOC(=O)CC(=O)N/N=C/c1c(N)n(C)c(=O)n(C)c1=O, Nc1nonc1C(=O)NCCN=Cc1ccccc1O, COc1cccc(-c2nccc(NCc3cccc(C)c3)n2)c1, O=C(C1CCCN1S(=O)(=O)c1ccc(Br)cc1)N1CCOCC1 (configuration not stated), CCOc1c(Br)cc(CNc2ccc3c(c2)OCCO3)cc1OC, Cn1c(=O)cc(SCC(=O)Nc2ccc3c(c2)OCO3)c2ccccc21, Cc1ccccc1NC(=O)CSc1nnnn1C, Fc1ccccc1C(c1nnnn1Cc1ccc2c(c1)OCO2)N1CCN(Cc2ccco2)CC1 (configuration not stated), COCc1cc(C)nc(N2CCCCC2)c1C#N, Nc1cnn(Cc2ccc(F)cc2)c1, O=C(O)CCCNc1c(C(=O)Nc2ccc(Cl)cc2)cc([N+](=O)[O-])cc1[N+](=O)[O-], CCS(=O)(=O)c1ccc2oc(SCC(=O)NC3CCCC(C)C3C)nc2c1 (configuration not stated)

Potency, active:
C/C(=N\NC(=S)Nc1ccccc1C)c1ccc(O)cc1 20 µM, COc1ccc2c(c1)C(=O)C(=O)N2 22.4 µM, COc1ccc(NC(=O)/C(Cl)=C(/Cl)S(=O)(=O)Cc2ccc(C)cc2)cn1 2.51 µM, COc1ccccc1C(=O)NC(=S)Nc1ccc(N2CCOCC2)c(Cl)c1 11.2 µM, COc1ccc(OC)c(-n2c(-c3cccc(O)c3)n[nH]c2=S)c1 10 µM, O=C(C1CCCO1)N1CCN(c2c3c(nc4cc(-c5ccc(F)cc5)nn24)CCC3)CC1 (configuration not stated) 22.4 µM

Reference: PubChem BioAssay AID1030 (National Center for Advancing Translational Sciences (NCATS), 2008)
